Measured values as given in PubChem BioAssay (NCI).
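Test compounds were applied to cells in 96-well plates for 48 hours at 5 doses. GI50 is the concentration that inhibits growth by half. TGI: total growth inhibition.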

tested on: NCI-H322M lung; assay: NCI tumour cell line growth inhibition, 48 h

Row | SMILES | TGI [µM] | GI50 [µM]
1 | Cc1ccnc2[nH]c(-c3ccc(Cl)cc3)cc(=O)c12 | > 100 | 
2 | CCCCCCCC(=O)[O-].N.N.N.N.N.[Co+3].[O-][Cl+3]([O-])([O-])[O-] | > 100 | > 100
3 | O=C1/C(=C/Cc2ccco2)N=C(c2ccccc2)N1c1nc2ccc(Sc3ccccc3)cc2[nH]1 | > 100 | 
4 | Cc1[nH]c(-c2ccccc2)c(O)c1C(=O)OC1CC(C)CCC1C(C)C (stereo not given) | 30.1 | 
5 | C=C1CC2(CC(c3ccccc3C)OC(c3ccccc3C)C2)OC1=O (stereo not given) | 28.2 | 
6 | O=S(=O)(O)c1ccc([Se][Se]c2ccc(S(=O)(=O)O)cc2)cc1 | > 100 | 
7 | CN1c2cccc[c]2[Sn]([CH3])([CH3])[c]2ccccc21 | 0.0651 | < 0.0126
8 | N/C(=N/O)NOCCC(N)C(=O)O (stereo not given) | > 100 | > 100
9 | O=C1/C(=C/c2ccc(C(=O)O)cc2)CNC/C1=C\c1ccc(C(=O)O)cc1 | > 100 | 
10 | CCc1c[n+]2c(cc1C1=CN3c4ccccc4[C@]45CCN6C/C(=C/CO)[C@H](C[C@H]64)[C@@H]([C@@H]1O)[C@H]35)-c1[nH]c3ccccc3c1CC2 | > 50 | 
11 | CC(=O)OC1CC[C@@]2(C)C(=CC[C@@H]3[C@@H]2CC[C@]2(C)Nc4c(cnn4-c4ccc(F)cc4)C[C@@H]32)C1 (stereo not given in full) | 97.4 | 
12 | CCOC(=O)C(NS(=O)(=O)c1ccccc1)(C(F)(F)F)P(=O)(OCC(C)C)OCC(C)C (stereo not given) | > 100 | 
13 | CCc1cc2c(cc1O)CC[C@@H]1[C@@H]2CC[C@]2(C)[C@@H](O)CC[C@@H]12 | 24.8 | 
14 | COc1cc(N2CCN(C(C)C)CC2)ccc1Nc1nc(Nc2ccc(F)cc2C(N)=O)c2cc[nH]c2n1 | 4.28 | 0.108
15 | CCN1CCC(O)(/C=C/c2ccc(Cl)c(Cl)c2)C(C(=O)/C=C/c2ccc(Cl)c(Cl)c2)C1 (stereo not given) | 2.63 | 
16 | O=C(O)Cn1cnc2c(=O)[nH]c(Nc3ccccc3)nc21 | > 100 | 
17 | COc1ccc(C2[C@@H](Cl)C(=O)N2c2ccc(OC)cc2)cc1 (stereo not given in full) | > 100 | 
18 | C[C@H]1O[C@@H](O[C@H]2[C@@H](O)C[C@H](O[C@H]3[C@@H](O)C[C@H](O[C@H]4CC[C@]5(C)C6CC[C@]7(C)[C@@H](C8=CC(=O)OC8)CC[C@]7(O)C6CC[C@@H]5C4)O[C@@H]3C)O[C@@H]2C)C[C@H](O)[C@@H]1O (stereo not given in full) | 0.0901 | 0.0188

Row | SMILES | TGI [µM] | GI50 [µM]
19 | CN(C)c1ccc(/C=C(\C#N)C(=O)c2ccccc2)cc1Br | > 100 | 
20 | COc1ccc(NC(=O)CC2SC(=Nc3ccc(Cl)cc3C)NC2=O)c([N+](=O)[O-])c1 (stereo not given) | > 100 | 
21 | COc1cc2cc(C(=O)Nc3ccccc3)c(N)nc2cc1OC | > 100 | > 100
22 | CC(C)C(N=C1CC2CCC1(C(=O)Nc1ccccc1O)C2(C)C)c1ccccc1 (stereo not given) | > 10 | 
23 | CCN1CC2(CO)CCC(OC)C34C5CC6C(OC)CC(O)(C5C6OC)C(O)(C(OC)C23)C14 (stereo not given) | > 375 | 
24 | O=C(N/N=C/c1ccc(O)cc1)NNCCO | > 100 | 
25 | COc1cccc(/C=C/C(=O)c2cc3c(N)c(C(=O)Nc4ccccc4)sc3nc2C)c1 | 9.13 | 2.09
26 | O=[N+]([O-])c1ccc(NC(c2ccccc2)c2ccc3cccnc3c2O)cc1 (stereo not given) | > 100 | 0.466
27 | [N-]=[N+]=NCCCn1c2c(c3ccccc3c1=O)C(=O)c1cc3c(cc1-2)OCO3 | > 100 | 69.4
28 | CCOC(=O)/C(C(N)=O)=C(/O)c1cnccn1 | > 100 | 
29 | CC(C)c1cccc(C(C)C)c1NC(=O)/C(Cc1nc2ccc(Cl)cc2[nH]c1=O)=N\NC(=O)C[N+](C)(C)C | > 100 | 
30 | COc1ccc2cc(CNCCOCCOCCNCc3ccc4cc(OC)ccc4c3)ccc2c1 | 2.02 | 
31 | C[C@]12CC[C@@H]3c4cc(C=O)c(OCc5ccccc5)cc4CC[C@H]3[C@@H]1CCC2OCc1ccccc1 (stereo not given in full) | > 100 | 
32 | Nc1nc2c(nnn2C2C=C(CO)C(O)C2O)c(=O)[nH]1 (stereo not given) | > 100 | 
33 | Clc1ccc(CCNCCNC2(c3cc4ccccc4s3)CCCCC2)cc1Cl | 3.84 | 
34 | COc1ccc2c(c1)C(=O)CC(C(N)=O)C2 (stereo not given) | > 100 | 
35 | O=S1(=O)OCCOS(=O)(=O)C1C1c2ccccc2-c2ccccc21 | > 100 | 
36 | CN(C)CC(O)CNC(=O)Nc1ccccc1 (stereo not given) | > 100 | 
